Key:
[1] = target: T1, Ephrin-A4 (EFNA4) (Homo sapiens, UniProt P52798); test: Direct ELISA binding specificity, Ephrin-A4; details: biotin-labeled antibody
T1 construct: purchased R&D
T1 sequence (P52798 26-170): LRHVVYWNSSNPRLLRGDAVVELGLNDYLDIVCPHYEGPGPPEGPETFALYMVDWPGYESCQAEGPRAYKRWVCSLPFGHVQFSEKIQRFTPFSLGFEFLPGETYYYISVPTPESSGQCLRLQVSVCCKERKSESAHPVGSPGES
Experimental: (§1) Further properties were determined using ELISA to analyze the binding specificity of anti-EFNA4 antibodies huE22 and huE47 to Ephrin-A4 (EFNA4) along with homologous family members Ephrin-A1 (EFNA1) and Ephrin-A3 (EFNA3). Antibody binding was determined by direct ELISA with Ephrin-A1-His, Ephrin-A3-huFc, Ephrin-A4-huFc and Ephrin-A5-huFc (all from R&D) coated on BioOne Microlon (Greiner) plates in PBS overnight at 4° C. Biotin-labeled huE22 and huE47 were incubated on the plate for 2.5 hours at room temperature and Streptavidin HRP was used to develop signal from biotin labeled antibody in the absence of interfering human IgG signal.

[2] = target: T2, Ephrin-A1 (EFNA1) (Homo sapiens, UniProt P20827); test: Direct ELISA binding specificity, Ephrin-A1; details: biotin-labeled antibody
T2 construct: His; purchased R&D
T2 sequence (P20827 19-182): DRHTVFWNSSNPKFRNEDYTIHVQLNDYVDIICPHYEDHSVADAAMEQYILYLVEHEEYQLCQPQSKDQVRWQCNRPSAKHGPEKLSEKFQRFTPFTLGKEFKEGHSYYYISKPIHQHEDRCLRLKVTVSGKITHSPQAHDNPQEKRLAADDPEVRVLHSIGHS
Experimental: as §1

[3] = target: T3, Ephrin-A3 (EFNA3) (Homo sapiens, UniProt P52797); test: Direct ELISA binding specificity, Ephrin-A3; details: biotin-labeled antibody
T3 construct: purchased R&D
T3 sequence (P52797 23-214): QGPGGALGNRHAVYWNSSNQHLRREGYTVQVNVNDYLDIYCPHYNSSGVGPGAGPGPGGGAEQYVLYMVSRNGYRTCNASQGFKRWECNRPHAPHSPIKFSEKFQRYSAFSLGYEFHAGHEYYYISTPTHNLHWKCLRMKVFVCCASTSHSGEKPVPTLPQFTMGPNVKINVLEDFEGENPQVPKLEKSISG
Experimental: as §1

[4] = test system: HEK293T-EFNA4 cells; test: Flow cytometry antibody binding (MCF), HEK293T-EFNA4; design: species or system human; details: 10 μg/ml antibody; HEK293T-EFNA4, high expression of EFNA4
Experimental: Binding of humanized anti-EFNA4 antibodies huE22 and huE47 was assessed on EFNA4 expressing cells by flow cytometry. Adherent cells were dissociated using TrpLE Express (GIBCO cat #12604-021), neutralized with cell culture media and counted. Cells were plated into a U-bottom 96-well plate (BD Falcon cat #353077) with 5×10e5 cells/100 μL media/well. The plate was centrifuged at 300×g, 5 minutes, 4° C. to pellet cells and the supernatant was discarded. All reagents were kept on ice for the following steps. Each pellet was resuspended in 100 μL primary humanized anti-EFNA4 antibody (huE22 or huE47) or negative control antibody at 10 μg/mL in 3% BSA in PBS. The plate was incubated on ice for 30 minutes. The plate was centrifuged and the cell pellets were washed in 200 μL 3% BSA in PBS. Each cell pellet was resuspended in 100 μL of R-phycoerythrin (PE)-conjugated goat anti-human IgG Fc fragment (Jackson ImmunoResearch cat #109-115-098) that had been diluted 1:50 in 3% BSA in PBS. […] The samples were analyzed by flow cytometry using 5 μL 7AAD (B-D Pharmingen cat #51-68981E) per sample as a viability stain.
Antibody binding was measured in the manner described above for HEK293T parental cells, which express very low levels of EFNA4, and HEK293T-EFNA4 cells which are stable transfectants of HEK293T with a vector that enables high expression of human EFNA4.

[5] = test system: BT-483; test: Flow cytometry antibody binding (MCF), BT-483; details: 10 μg/ml antibody; BT-483, Breast
Experimental: (§2) Binding of humanized anti-EFNA4 antibodies huE22 and huE47 was assessed on EFNA4 expressing cells by flow cytometry. Adherent cells were dissociated using TrpLE Express (GIBCO cat #12604-021), neutralized with cell culture media and counted. Cells were plated into a U-bottom 96-well plate (BD Falcon cat #353077) with 5×10e5 cells/100 μL media/well. The plate was centrifuged at 300×g, 5 minutes, 4° C. to pellet cells and the supernatant was discarded. All reagents were kept on ice for the following steps. Each pellet was resuspended in 100 μL primary humanized anti-EFNA4 antibody (huE22 or huE47) or negative control antibody at 10 μg/mL in 3% BSA in PBS. The plate was incubated on ice for 30 minutes. The plate was centrifuged and the cell pellets were washed in 200 μL 3% BSA in PBS. Each cell pellet was resuspended in 100 μL of R-phycoerythrin (PE)-conjugated goat anti-human IgG Fc fragment (Jackson ImmunoResearch cat #109-115-098) that had been diluted 1:50 in 3% BSA in PBS. The plate was incubated on ice for 30 minutes. […] The samples were analyzed by flow cytometry using 5 μL 7AAD (B-D Pharmingen cat #51-68981E) per sample as a viability stain.
(§3) Endogenous EFNA4 expressing cancer cell lines were analyzed: Breast cell lines BT-483, HCC202 and MX-1, Chronic Lymphocytic Leukemia (CLL) cell line MEC1 and mantle cell lymphoma (MCL) cell line Z138.

[6] = test system: HCC202; test: Flow cytometry antibody binding (MCF), HCC202; details: 10 μg/ml antibody; HCC202, Breast
Experimental: as §2, §3

[7] = test system: MX-1; test: Flow cytometry antibody binding (MCF), MX-1; details: 10 μg/ml antibody; MX-1, Breast
Experimental: as §2, §3

[8] = test system: MEC1; test: Flow cytometry antibody binding (MCF), MEC1; details: 10 μg/ml antibody; MEC1, B-CLL
Experimental: as §2, §3

[9] = test system: Z138; test: Flow cytometry antibody binding (MCF), Z138; details: 10 μg/ml antibody; Z138, MCL
Experimental: as §2, §3

B1: huE47: humanized antibody E47, heavy chain SEQ ID NO: 51, light chain SEQ ID NO: 63 (antibody)
heavy: QVQLVQSGAEVKKPGASVKVSCKASGYTFTYFYMNWVRQAPGQGLEWVGQINPNNGGTAYAQKFQGRVTMTRDTSTSTVYMELSSLRSEDTAVYYCARWVGTHYFDYWGQGTTLTVSS[human IgG1 constant region omitted here]
light: EIVLTQSPATLSLSPGERATLSCRASQSVSSSSYTYIHWYQQKPGQAPRLLINFASNLESGIPARFSGSGSGTDFTLTISSLEPEDFAVYYCQHSWEIPPTFGGGTKLEIKRTVAAPSVFIFPPSDEQLKSGTASVVCLLNNFYPREAKVQWKVDNALQSGNSQESVTEQDSKDSTYSLSSTLTLSKADYEKHKVYACEVTHQGLSSPVTKSFNRGEC
- binding to Ephrin-A4 (EFNA4) [1]: binds to EFNA4
- binding to Ephrin-A1 (EFNA1) [2]: but not EFNA1 or EFNA3
- binding to Ephrin-A3 (EFNA3) [3]: but not EFNA1 or EFNA3
- Mean Channel Fluorescence (MCF) [4]: 576
- Mean Channel Fluorescent (MCF) [5]: 24
- Mean Channel Fluorescent (MCF) [6]: 21.9
- Mean Channel Fluorescent (MCF) [7]: 21.1
- Mean Channel Fluorescent (MCF) [8]: 33
- Mean Channel Fluorescent (MCF) [9]: 44
